A lower IC50 marks a more sensitive line; where the fit passes the top or lowest dose, that dose stands as a limit. AUC is the area under the same curve over the 256-fold range up to the top dose, as a fraction; it is 1 without any effect and falls as sensitivity rises. Where the top dose is marked as inferred, it was derived from the fitted curves, not read from the paper. Where an entry number is given, a second screen of the drug exists; the two often differ.
Compound: O=c1[nH]c2ccccc2n1C1CCN(Cc2ccc(-c3[nH]c4cc5ncnc5cc4nc3-c3ccccc3)cc2)CC1 [AKT inhibitor VIII]
Test: Viability of human cancer cell lines after 72 h of drug (GDSC screen)
Settings: top dose inferred
Experimental: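 Human cancer cell lines in 384-well plates, medium with 10% serum, drug for 72 h over a 256-fold dose range (nine 2-fold or five 4-fold steps up to the top dose). Adherent lines were fixed and stained with the nucleic acid dye Syto60, suspension lines read with resazurin; signal relative to control wells, capped at 0 and 100%. One two-parameter sigmoid per drug and line, fitted in a mixed model over all curves with the slope shared within a line.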

[1] = top dose 2.56 µM, screen: GDSC drug entry 171
[2] = top dose 10.24 µM, screen: GDSC drug entry 228

| Cell Line | AUC [1] | IC50 [1] [nM] | AUC [2] | IC50 [2] [nM] |
| --- | --- | --- | --- | --- |
| 769-P (kidney, adherent) | 0.96 | > 2560 | 0.89 | > 10200 |
| 786-0 (kidney, adherent) | 0.768 | 883 | 0.767 | 3500 |
| A172 (glioma, adherent) | 0.958 | > 2560 | 0.946 | > 10200 |
| A204 (rhabdomyosarcoma, adherent) | 0.883 | > 2560 | 0.803 | 6910 |
| A673 (rhabdomyosarcoma, adherent) | 0.976 | > 2560 | 0.917 | > 10200 |
| BB49-HNC (head and neck, adherent) | 0.951 | > 2560 | 0.966 | > 10200 |
| BC-3 (B-cell lymphoma, suspension) | 0.969 | > 2560 | 0.813 | 4810 |
| BCPAP (thyroid, adherent) | 0.989 | > 2560 | 0.957 | > 10200 |
| BEN (non-small cell lung carcinoma, adherent) | 0.94 | > 2560 | 0.908 | > 10200 |
| BFTC-909 (kidney, adherent) | 0.928 | > 2560 | 0.927 | > 10200 |
| BHY (head and neck, adherent) | 0.94 | > 2560 | 0.897 | > 10200 |
| BICR31 (head and neck, adherent) | 0.947 | > 2560 | 0.962 | > 10200 |
| BPH-1 (prostate, adherent) | 0.982 | > 2560 | 0.708 | 2660 |
| CAL-54 (kidney, adherent) | 0.868 | > 2560 | 0.902 | > 10200 |
| CAL-148 (breast, suspension) | 0.935 | > 2560 | 0.9 | > 10200 |
| CAMA-1 (breast, adherent) | 0.936 | > 2560 | 0.857 | > 10200 |
| CFPAC-1 (pancreas, adherent) | 0.921 | > 2560 | 0.917 | > 10200 |
| CHP-134 (neuroblastoma, suspension) |  |  | 0.868 | > 10200 |
| COLO-679 (melanoma, adherent) | 0.946 | > 2560 | 0.904 | > 10200 |
| COLO-792 (melanoma, adherent) | 0.984 | > 2560 | 0.933 | > 10200 |
| COLO-829 (melanoma, adherent) | 0.93 | > 2560 | 0.881 | > 10200 |
| COR-L105 (lung adenocarcinoma, adherent) | 0.92 | > 2560 | 0.786 | 5480 |
| COR-L303 (small cell lung carcinoma, suspension) |  |  | 0.781 | 4080 |
| COR-L311 (small cell lung carcinoma, suspension) |  |  | 0.665 | 1910 |

| Cell Line | AUC [1] | IC50 [1] [nM] | AUC [2] | IC50 [2] [nM] |
| --- | --- | --- | --- | --- |
| Caov-3 (ovary, adherent) | 0.988 | > 2560 | 0.932 | > 10200 |
| Capan-2 (pancreas, adherent) | 0.945 | > 2560 | 0.89 | > 10200 |
| ChaGo-K-1 (non-small cell lung carcinoma, adherent) | 0.93 | > 2560 | 0.794 | 5570 |
| ECC12 (stomach, suspension) | 0.898 | > 2560 |  |  |
| ES3 (Ewing sarcoma, adherent) | 0.95 | > 2560 | 0.73 | 3010 |
| G-401 (kidney, adherent) | 0.917 | > 2560 | 0.783 | 4780 |
| GAMG (glioma, adherent) | 0.872 | > 2560 | 0.883 | > 10200 |
| GCT (soft tissue, adherent) | 0.98 | > 2560 | 0.983 | > 10200 |
| GP5d (large intestine, adherent) | 0.943 | > 2560 | 0.801 | 4400 |
| H2591 (mesothelioma, adherent) | 0.942 | > 2560 | 0.939 | > 10200 |
| H2803 (mesothelioma, adherent) | 0.933 | > 2560 | 0.964 | > 10200 |
| H2804 (mesothelioma, adherent) | 0.958 | > 2560 | 0.867 | > 10200 |
| H2818 (mesothelioma, adherent) | 0.98 | > 2560 | 0.979 | > 10200 |
| H-EMC-SS (chondrosarcoma, adherent) | 0.971 | > 2560 | 0.915 | > 10200 |
| HCC1599 (breast, suspension) | 0.955 | > 2560 | 0.633 | 1580 |
| HCC1806 (breast, adherent) |  |  | 0.91 | > 10200 |
| HCC-33 (small cell lung carcinoma, adherent) | 0.964 | > 2560 | 0.919 | > 10200 |
| HEL (acute myeloid leukaemia, semi-adherent) | 0.986 | > 2560 | 0.844 | 5580 |
| HH (T-cell leukaemia, suspension) | 0.825 | 2270 | 0.431 | 388 |
| HLE (liver, adherent) | 0.903 | > 2560 | 0.988 | > 10200 |
| HO-1-N-1 (head and neck, adherent) | 0.978 | > 2560 | 0.973 | > 10200 |
| HPAC (pancreas, adherent) | 0.893 | > 2560 | 0.848 | > 10200 |
| HPAF-II (pancreas, adherent) | 0.91 | > 2560 | 0.863 | > 10200 |
| HSC-3 (head and neck, adherent) | 0.978 | > 2560 | 0.972 | > 10200 |

| Cell Line | AUC [1] | IC50 [1] [nM] | AUC [2] | IC50 [2] [nM] |
| --- | --- | --- | --- | --- |
| HT-144 (melanoma, adherent) | 0.96 | > 2560 | 0.977 | > 10200 |
| HTC-C3 (thyroid, adherent) | 0.944 | > 2560 | 0.856 | 9830 |
| HeLa (cervix, adherent) | 0.982 | > 2560 | 0.965 | > 10200 |
| Hs940-T (melanoma, adherent) | 0.917 | > 2560 | 0.876 | > 10200 |
| Hs-445 (Hodgkin lymphoma, suspension) | 0.942 | > 2560 | 0.757 | 3300 |
| IM-95 (stomach, adherent) | 0.77 | 1040 | 0.636 | 1570 |
| IST-MES1 (mesothelioma, adherent) | 0.983 | > 2560 | 0.928 | > 10200 |
| J82 (bladder, adherent) | 0.919 | > 2560 | 0.919 | > 10200 |
| JAR (urogenital system, adherent) | 0.988 | > 2560 | 0.876 | 9840 |
| K-562 (chronic myeloid leukaemia, suspension) | 0.988 | > 2560 | 0.75 | 3260 |
| KG-1 (acute myeloid leukaemia, suspension) | 0.974 | > 2560 | 0.824 | 5230 |
| KNS-81-FD (glioma, adherent) | 0.97 | > 2560 | 0.967 | > 10200 |
| KOSC-2 (head and neck, adherent) | 0.959 | > 2560 |  |  |
| KP-4 (pancreas, adherent) | 0.98 | > 2560 | 0.974 | > 10200 |
| KP-N-YS (neuroblastoma, adherent) | 0.975 | > 2560 | 0.835 | 8140 |
| KYSE-150 (oesophagus, adherent) | 0.947 | > 2560 | 0.962 | > 10200 |
| KYSE-180 (oesophagus, adherent) | 0.949 | > 2560 | 0.964 | > 10200 |
| KYSE-270 (oesophagus, adherent) | 0.911 | > 2560 | 0.935 | > 10200 |
| LB996-RCC (kidney, adherent) | 0.947 | > 2560 | 0.98 | > 10200 |
| LC-2-ad (lung adenocarcinoma, adherent) | 0.936 | > 2560 | 0.848 | 7950 |
| LNCaP-Clone-FGC (prostate, adherent) | 0.935 | > 2560 | 0.687 | 2320 |
| LOXIMVI (melanoma, semi-adherent) | 0.983 | > 2560 | 0.968 | > 10200 |
| LU-99A (large cell lung carcinoma, adherent) | 0.985 | > 2560 | 0.908 | > 10200 |
| MDA-MB-157 (breast, adherent) | 0.964 | > 2560 | 0.922 | > 10200 |

| Cell Line | AUC [1] | IC50 [1] [nM] | AUC [2] | IC50 [2] [nM] |
| --- | --- | --- | --- | --- |
| MDA-MB-453 (breast, adherent) | 0.908 | > 2560 | 0.538 | 820 |
| MFE-319 (endometrium, adherent) | 0.919 | > 2560 | 0.889 | > 10200 |
| MKN1 (stomach, adherent) | 0.924 | > 2560 | 0.952 | > 10200 |
| ML-1 (thyroid, adherent) | 0.867 | > 2560 | 0.893 | > 10200 |
| MLMA (hairy cell leukaemia, semi-adherent) | 0.967 | > 2560 | 0.749 | 3350 |
| MOLT-13 (T-cell lymphoblastic leukaemia, suspension) |  |  | 0.685 | 1960 |
| MZ7-mel (melanoma, adherent) | 0.969 | > 2560 | 0.884 | > 10200 |
| NB7 (neuroblastoma, adherent) | 0.984 | > 2560 | 0.902 | > 10200 |
| NCI-H196 (small cell lung carcinoma, adherent) | 0.97 | > 2560 | 0.792 | 4860 |
| NCI-H522 (lung adenocarcinoma, adherent) | 0.9 | > 2560 | 0.887 | > 10200 |
| NCI-H748 (small cell lung carcinoma, suspension) | 0.955 | > 2560 | 0.843 | > 10200 |
| NCI-H1299 (large cell lung carcinoma, adherent) | 0.918 | > 2560 | 0.94 | > 10200 |
| NCI-H1355 (lung adenocarcinoma, adherent) | 0.924 | > 2560 | 0.87 | > 10200 |
| NCI-H1573 (lung adenocarcinoma, adherent) | 0.99 | > 2560 | 0.86 | 8150 |
| NCI-H1793 (lung adenocarcinoma, adherent) | 0.97 | > 2560 | 0.971 | > 10200 |
| NCI-H1915 (large cell lung carcinoma, adherent) | 0.986 | > 2560 | 0.959 | > 10200 |
| NCI-H2030 (lung adenocarcinoma, adherent) | 0.84 | 2120 | 0.761 | 4120 |
| NCI-H2085 (lung adenocarcinoma, adherent) | 0.912 | > 2560 | 0.794 | 5150 |
| NCI-H2170 (lung squamous cell carcinoma, adherent) | 0.9 | > 2560 | 0.95 | > 10200 |
| NCI-H2171 (small cell lung carcinoma, suspension) | 0.991 | > 2560 | 0.96 | > 10200 |
| NCI-H2196 (small cell lung carcinoma, adherent) | 0.966 | > 2560 | 0.795 | 5050 |
| NCI-H2228 (lung adenocarcinoma, adherent) | 0.784 | 1750 | 0.645 | 1980 |
| NCI-H2291 (lung adenocarcinoma, adherent) | 0.981 | > 2560 | 0.936 | > 10200 |
| NUGC-3 (stomach, adherent) | 0.855 | 2460 | 0.972 | > 10200 |

From the supplement of paper PMC4967469
